Assay results published in PubChem BioAssay AID504332 (National Center for Advancing Translational Sciences (NCATS), 2011).
About 31,000 (8.9%) of roughly 350,000 compounds were called active. Inconclusive results, whose numbers are uncertain, are shown with a selection of clear calls. Calls come from the whole dose curve; as a rule, active = well fitted inhibition curve with a large enough effect; inconclusive = small, poorly fitted or top-dose-only effect; inactive = no such curve, though single readings can be large or run the other way. Where the call is inconclusive, the potency comes from a doubtful curve fit.

Biological target: Histone-lysine N-methyltransferase EHMT2 (Homo sapiens) (UniProt Q96KQ7)
Sequence of UniProt Q96KQ7 (Q96KQ7 whole entry, looked up): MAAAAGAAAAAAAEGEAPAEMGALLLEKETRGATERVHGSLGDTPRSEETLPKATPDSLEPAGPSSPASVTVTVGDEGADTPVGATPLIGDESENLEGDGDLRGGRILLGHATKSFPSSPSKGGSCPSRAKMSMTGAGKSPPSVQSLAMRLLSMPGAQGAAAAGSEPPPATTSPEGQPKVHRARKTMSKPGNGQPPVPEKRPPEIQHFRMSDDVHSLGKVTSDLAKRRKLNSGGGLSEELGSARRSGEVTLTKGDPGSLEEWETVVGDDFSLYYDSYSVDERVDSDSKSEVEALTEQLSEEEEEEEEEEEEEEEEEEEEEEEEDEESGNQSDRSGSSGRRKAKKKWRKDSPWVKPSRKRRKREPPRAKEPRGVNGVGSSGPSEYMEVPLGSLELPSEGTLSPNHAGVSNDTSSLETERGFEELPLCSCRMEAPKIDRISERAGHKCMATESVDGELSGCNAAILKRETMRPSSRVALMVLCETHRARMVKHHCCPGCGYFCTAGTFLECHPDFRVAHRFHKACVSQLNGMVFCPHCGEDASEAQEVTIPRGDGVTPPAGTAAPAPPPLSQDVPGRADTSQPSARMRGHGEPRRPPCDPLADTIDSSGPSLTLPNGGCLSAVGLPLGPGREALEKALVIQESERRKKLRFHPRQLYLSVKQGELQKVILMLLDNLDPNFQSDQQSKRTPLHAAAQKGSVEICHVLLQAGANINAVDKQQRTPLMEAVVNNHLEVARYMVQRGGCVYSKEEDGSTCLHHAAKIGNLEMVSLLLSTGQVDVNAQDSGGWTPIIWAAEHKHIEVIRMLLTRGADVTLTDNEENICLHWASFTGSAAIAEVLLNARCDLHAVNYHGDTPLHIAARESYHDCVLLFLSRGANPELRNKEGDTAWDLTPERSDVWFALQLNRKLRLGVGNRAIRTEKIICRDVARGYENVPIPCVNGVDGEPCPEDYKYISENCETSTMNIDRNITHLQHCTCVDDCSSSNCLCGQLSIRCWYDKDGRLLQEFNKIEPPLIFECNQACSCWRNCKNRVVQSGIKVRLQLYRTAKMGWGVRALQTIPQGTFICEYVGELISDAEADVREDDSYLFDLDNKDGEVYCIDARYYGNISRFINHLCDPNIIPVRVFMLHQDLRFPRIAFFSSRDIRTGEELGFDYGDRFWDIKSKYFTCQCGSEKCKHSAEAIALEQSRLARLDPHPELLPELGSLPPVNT
Assay: qHTS Assay for Inhibitors of Histone Lysine Methyltransferase G9a; note: nearly all actives have a fitted effect of over 75% in size
Conditions: G9a H3K9 monomethylation, AlphaScreen, 2 h; activity, negative = inhibition: at 59 µM (top of the series) unless noted
Summary of the method: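 Chemiluminescent proximity detection of H3K9 monomethylation, read after 10 min bead incubation in the dark. Reaction: 20 nM G9a, 500 nM biotin-H3K9 peptide, 20 uM SAM cofactor, 2 h, room temperature, following 15 min enzyme-compound preincubation.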
% is set by controls: 0 for no effect and ±100 for the full control effect; potency is the fitted concentration of half-maximal effect; tags give direction and shape of the fitted curve.

| Structure (SMILES) | Potency | activity, negative = inhibition |
| --- | --- | --- |
| CCS(=O)(=O)Nc1ccc2c(c1)N(C(C)=O)c1ccccc1CC2 | inconclusive: 1.26 µM [inhibitor, full curve, poor fit] |  |
| CC(C(=O)Nc1cc([N+](=O)[O-])ccc1Cl)N1CCN(c2ccccc2)CC1 (configuration not stated) | inactive |  |
| Fc1ccc(-c2nnc3sc(C4COc5ccccc5O4)nn23)cc1 (configuration not stated) | inactive |  |
| COc1ccc(NCc2cc3cc4c(cc3n(CC(=O)Nc3ccc(C)cc3)c2=O)OCO4)cc1 | inactive |  |
| CCN1C(=O)c2ccccc2Sc2ccc(C(=O)NCCCN3CCCCC3)cc21 | inconclusive: 79.4 µM [inhibitor, single point] |  |
| CC(=O)c1c(C)n(-c2ccccc2Br)c2ccc(O)cc12 | inconclusive: 79.4 µM [inhibitor, single point] |  |
| CC(=O)Oc1ccc(C(=O)Nc2cc(NC(=O)c3ccc(OC(C)=O)cc3)cc(C(=O)NC(C)(C)C)c2)cc1 | inconclusive: 0.316 µM [inhibitor, partial curve, poor fit] |  |
| O=C(CNC1CCCCCC1)Nc1ccc(S(=O)(=O)NC2CC2)cc1 | inactive |  |
| CN(CCO)Cc1csc2ccc(Br)cc12 | inconclusive: 39.8 µM [inhibitor, single point] |  |
| Oc1ccc(CN2CCCc3ccccc32)c2cccnc12 | active: 1.58 µM |  |
| CCN(CC)c1ccc(NC(=O)COc2ccccc2C#N)cc1S(=O)(=O)Nc1ccc(OC)cc1 | inconclusive: 31.6 µM [inhibitor, single point] |  |
| COc1cccc(-n2ccnc2SCC(=O)Nc2ccccc2)c1 | inconclusive: 28.2 µM [inhibitor, single point] |  |
| O=C(/C=C/Sc1ccccc1)c1ccccc1 | inactive |  |
| COC(=O)C1=C(CSc2nc3ccccc3o2)NC(=O)NC1c1cc(C)ccc1C (configuration not stated) |  | inactive: 7.61% [at 12.7 µM] |
| O=S(=O)(c1ccc(F)cc1)N1CCN(C(=S)NC2CC2)CC1 | inactive |  |
| N#Cc1ccccc1OCc1cccc(S(=O)(=O)N2CCOCC2)c1 |  | inactive: -12.2% [at 12.7 µM] |
| CCN(CC)C(=O)COC(=O)c1ccc(C)c(NC(=O)c2ccco2)c1 | inconclusive: 56.2 µM [inhibitor, partial curve, poor fit] |  |
| CC(=O)C(C(C)=O)c1c(Cl)c(O)c(O)c2c(C(=O)c3ccccc3)coc12 | inconclusive: 7.94 µM [inhibitor, full curve, poor fit] |  |
| Cc1onc(-c2c(F)cccc2Cl)c1C(=O)Nc1nc2c(s1)CCCC2 | inconclusive: 22.4 µM [inhibitor, single point] |  |
| O=C(OCC(=O)N1CCN(S(=O)(=O)c2ccccc2)CC1)c1ccc([N+](=O)[O-])o1 | inconclusive: 28.2 µM [inhibitor, partial curve, poor fit] |  |
| Cn1c2ccccc2c2c(C(=O)N3CCN(c4ccc(F)cc4)CC3)cn(C3CCCCC3)c(=O)c21 | inconclusive: 15.8 µM [inhibitor, partial curve, poor fit] |  |
| COc1cc(C(=O)Nc2ccc3oc(-c4ccccc4)nc3c2)cc(OC)c1OC | inconclusive: 25.1 µM [inhibitor, partial curve, poor fit] |  |
| O=C(NC(Nc1ncccn1)C(=O)c1ccccc1)c1ccccc1 (configuration not stated) | inconclusive: 14.1 µM [inhibitor, partial curve, poor fit] |  |

| Structure (SMILES) | Potency | activity, negative = inhibition |
| --- | --- | --- |
| CCC1=NC(c2ccc(OC)cc2OC)N(O)C1(C)C (configuration not stated) | inconclusive: 17.8 µM [inhibitor, partial curve, poor fit] |  |
| CCOC(=O)C1CCN(Cc2ccc(F)cc2F)CC1 | active: 12.6 µM |  |
| O=C(O)c1ccc(Cl)c(N2C(=O)Nc3ccccc3N2O)c1 | inconclusive: 63.1 µM [inhibitor, partial curve, poor fit] |  |
| O=C(NC(=S)Nc1ccc(N2CCOCC2)c(Cl)c1)C(c1ccccc1)c1ccccc1 | inactive |  |
| Cc1cc2c(OCC(O)CNC3CCCCC3)cccc2[nH]1 (configuration not stated) | inconclusive: 89.1 µM [inhibitor, partial curve, poor fit] |  |
| CCC1CSC(Nc2ccc(C(=O)/C=C/c3ccc(Br)cc3)cc2)=N1 (configuration not stated) | inconclusive: 22.4 µM [inhibitor, partial curve, poor fit] |  |
| Cc1nc(SCC(=O)Nc2cc(Cl)ccc2[N+](=O)[O-])nc(C)c1C | inconclusive: 25.1 µM [inhibitor, single point] |  |
| O=C(N/N=C/c1ccncc1)c1cc(-c2ccc(Br)s2)[nH]n1 | inconclusive: 56.2 µM [inhibitor, partial curve] |  |
| CCn1c2ccc(C)cc2c2n[nH]c(=S)nc21 | active: 7.08 µM |  |
| COc1ccccc1-c1nnc(SCCN2CCOCC2)n1-c1ccc(C)cc1 | active: 15.8 µM |  |
| COc1cc(C(=S)N2CCCC2)cc(Cl)c1OCC(=O)Nc1ccc(C)cc1C | active: 7.94 µM |  |
| CC1CCC2(CC1)NC(=O)N(NC(=O)CSc1nnc(NC3CC3)s1)C2=O (configuration not stated) |  | inactive: -0.775% [at 12.7 µM] |
| CCCCN(CC)CCNc1c(NC2CCN(C(=O)OCC)CC2)c(=O)c1=O | inconclusive: 89.1 µM [inhibitor, single point] |  |
| CCOc1ccc(C2Nc3ccccc3-c3nnc(SCc4ccccc4)nc3O2)cc1OC (configuration not stated) | inactive |  |
| O=C(NC(=S)Nc1nc(-c2cccc3ccccc23)cs1)c1cc2ccccc2o1 | inactive |  |
| Cn1nc(-c2ccc(Cl)cc2)c2cc(C(=O)NCCN3CCOCC3)sc21 | active: 70.8 µM |  |
| CSc1nsc(SCC(=O)Nc2nc3ccc(C)cc3s2)n1 | inconclusive: 22.4 µM [inhibitor, single point] |  |
| CCOc1ccc(CC(=O)N2CCN=C2SCc2ccc([N+](=O)[O-])cc2)cc1 | inconclusive: 50.1 µM [inhibitor, partial curve, poor fit] |  |
| COc1ccc([N+](=O)[O-])cc1NC(=S)NC(NC(=O)Cc1ccc(OC)c(OC)c1)C(Cl)(Cl)Cl (configuration not stated) | inactive |  |
| Cc1ccc(S(=O)(=O)N2CC3(C)CN(S(=O)(=O)c4ccc(C)cc4)CC(C)(C2)C3=O)cc1 |  | inactive: -4.78% [at 12.7 µM] |
| Cc1ccc(-n2nnnc2SCC(=O)c2c(N)n(C3CC3)c(=O)[nH]c2=O)cc1 | inconclusive: 31.6 µM [inhibitor, single point] |  |
| CCC(=O)N1CCc2cc(Br)cc(S(=O)(=O)CCC(=O)NCCc3ccc(Cl)cc3)c21 | inactive |  |
| CCOC(=O)c1c(C)[nH]sc1=S | active: 3.55 µM |  |

| Structure (SMILES) | Potency | activity, negative = inhibition |
| --- | --- | --- |
| CCOc1ccccc1NC(=O)Nc1nnc(N2CCCCCC2)s1 | inconclusive: 14.1 µM [inhibitor, partial curve, poor fit] |  |
| COc1ccccc1C(=O)COC(=O)/C(=C/c1ccccc1)NC(C)=O | inconclusive: 79.4 µM [inhibitor, partial curve, poor fit] |  |
| CCc1cccc(NC(=O)c2ccc(CN3C(=O)C(C)=C(c4ccc(OC)cc4)S3(=O)=O)cc2)c1 | inactive |  |
| Cc1ccc(CNC(=O)CN(C(=O)C2(C)CC(=O)N=C3C=CC=CN32)c2ccc(F)cc2)cc1 (configuration not stated) | inconclusive: 0.199 µM [inhibitor, partial curve, poor fit] |  |
| COc1ccccc1C(=O)NCC(=O)OCC(=O)Nc1cccc(S(=O)(=O)N2CCCCCC2)c1 | inconclusive: 35.5 µM [inhibitor, partial curve, poor fit] |  |
| Cc1cc2oc3c(c(=O)c2cc1C)C(c1ccc(C(C)C)cc1)N(CCCN1CCOCC1)C3=O (configuration not stated) | active: 50.1 µM |  |
| Cc1ccc2c(c1)CCCN2C(=O)Nc1ccc2c(c1)OCO2 | inconclusive: 1.41 µM [inhibitor, full curve] |  |
| O=C(O)C1C2C=CC(C2)C1C(=O)Nc1ccc2c(c1)OCCO2 (configuration not stated) | inactive |  |
| COc1ccc2c(c1OC)C(=O)OC2Nc1nc(-c2ccc(-c3ccccc3)cc2)cs1 (configuration not stated) | active: 39.8 µM |  |
| COc1ccccc1N1CCN(CC(O)COc2cc(C)cc(C)c2)CC1 (configuration not stated) | inconclusive: 39.8 µM [inhibitor, partial curve, poor fit] |  |
| O=C(O)CCC(=O)N1CCc2cc(S(=O)(=O)N3CC=C(c4ccccc4)CC3)ccc21 | inconclusive: 89.1 µM [inhibitor, single point] |  |
| O=C(CSc1nc2ccccc2c(=O)n1-c1ccccc1Cl)NCC1CCCO1 (configuration not stated) | inconclusive: 3.98 µM [inhibitor, single point] |  |
| CC1CCN(c2nc(N(C)c3ccccc3)nc(N)c2[N+](=O)[O-])CC1 | inconclusive: 39.8 µM [inhibitor, partial curve] |  |
| Cc1cccc(OCc2nnc(SCC(=O)N3CC(=O)Nc4ccccc43)o2)c1 | inconclusive: 44.7 µM [inhibitor, partial curve] |  |
| COc1ccc(N2C(=O)CSC23C(=O)Nc2ccccc23)cc1OC (configuration not stated) | inactive |  |
| CCCn1c(C(C)Nc2nc(-c3ccc(C)cc3)cs2)nc2cc(Cl)c(N3CCCCC3)cc21 (configuration not stated) | inconclusive: 70.8 µM [inhibitor, single point] |  |
| O=C1c2cccc3c([N+](=O)[O-])c(O)cc(c23)C(=O)N1Nc1ccccc1 | active: 20 µM |  |
| CCc1ccc(NC(=O)Nc2cccc(OC)c2)cc1 | inactive |  |
| Cc1ccc(/C(O)=C2/C(=O)C(=O)N(c3ccccn3)C2c2ccc(F)cc2)cc1 (configuration not stated) | active: 39.8 µM |  |
| O=C(COC(=O)CCc1ccc(S(=O)(=O)N2CCCCC2)cc1)Nc1cccc2ccccc12 | inconclusive: 25.1 µM [inhibitor, single point] |  |
| CCCCN1C(=O)C2(NNc3ccccc3O2)c2ccccc21 (configuration not stated) | inconclusive: 7.94 µM [inhibitor, partial curve, poor fit] |  |
